Laboratory results as given in the supplement of paper PMC8728848.
The other results are listed elsewhere or left out.

Key:
Experiment in all cases: glycan array binding signal (z-score within array); higher = stronger binding
Conditions in all cases: glycan notation: IUPAC condensed, linker removed
[1] = target: Fuc(a1-2)Gal(b1-4)GlcNAc(b1-3)Gal(b1-4)GlcNAc(b1-3)Gal(b1-4)GlcNAc
Procedure, shortened: (§1)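 Glycan array data came from 3228 arrays in the Consortium for Functional Glycomics database, and only arrays with an available protein sequence were kept. Glycan names were put into IUPAC-condensed notation, and columns mapping to the same glycan were averaged. The binding signal is a within-array Z-score, averaged across arrays of one protein sequence run at different concentrations or buffers and across linkers. A negative Z-score can be read as non-binding.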

[2] = target: Fuc(a1-2)Gal(b1-4)GlcNAc(b1-3)GalNAc
Procedure, shortened: as §1

[3] = target: Fuc(a1-2)Gal(b1-4)GlcNAc(b1-3)[Fuc(a1-2)Gal(b1-4)GlcNAc(b1-6)]GalNAc
Procedure, shortened: as §1

[4] = target: Fuc(a1-2)Gal(b1-4)GlcNAc(b1-3)[Fuc(a1-3)[Gal(b1-4)]GlcNAc(b1-6)]Gal(b1-4)Glc
Procedure, shortened: as §1

[5] = target: Fuc(a1-2)Gal(b1-4)GlcNAc(b1-6)GalNAc
Procedure, shortened: as §1

[6] = target: Fuc(a1-2)Gal(b1-4)GlcNAc6S
Procedure, shortened: as §1

[7] = target: Fuc(a1-2)Gal(b1-4)[Fuc(a1-3)]GlcNAc
Procedure, shortened: as §1

[8] = target: Fuc(a1-2)Gal(b1-4)[Fuc(a1-3)]GlcNAc(b1-2)Man(a1-3)[Fuc(a1-2)Gal(b1-4)[Fuc(a1-3)]GlcNAc(b1-2)Man(a1-6)]Man(b1-4)GlcNAc(b1-4)[Fuc(a1-6)]GlcNAc
Procedure, shortened: as §1

[9] = target: Fuc(a1-2)Gal(b1-4)[Fuc(a1-3)]GlcNAc(b1-2)[Fuc(a1-2)Gal(b1-4)[Fuc(a1-3)]GlcNAc(b1-4)]Man(a1-3)[Fuc(a1-2)Gal(b1-4)[Fuc(a1-3)]GlcNAc(b1-2)Man(a1-6)]Man(b1-4)GlcNAc(b1-4)GlcNAc
Procedure, shortened: as §1

[10] = target: Fuc(a1-2)Gal(b1-4)[Fuc(a1-3)]GlcNAc(b1-3)Gal(b1-4)[Fuc(a1-3)]GlcNAc
Procedure, shortened: as §1

[11] = target: Fuc(a1-2)Gal(b1-4)[Fuc(a1-3)]GlcNAc(b1-3)Gal(b1-4)[Fuc(a1-3)]GlcNAc(b1-3)Gal(b1-4)[Fuc(a1-3)]GlcNAc
Procedure, shortened: as §1

[12] = target: Fuc(a1-2)Gal(b1-4)[Fuc(a1-3)]GlcNAc(b1-3)GalNAc
Procedure, shortened: as §1

[13] = target: Fuc(a1-2)Gal(b1-4)[Fuc(a1-3)]GlcNAc(b1-3)[Neu5Ac(a2-6)Gal(b1-4)GlcNAc(b1-6)]Gal(b1-4)Glc
Procedure, shortened: as §1

[14] = target: Fuc(a1-2)Gal3S(b1-4)GlcNAc
Procedure, shortened: as §1

[15] = target: Fuc(a1-2)Gal6S(b1-3)GlcNAc
Procedure, shortened: as §1

[16] = target: Fuc(a1-2)Gal6S(b1-3)GlcNAc6S
Procedure, shortened: as §1

[17] = target: Fuc(a1-2)Gal6S(b1-4)Glc
Procedure, shortened: as §1

[18] = target: Fuc(a1-2)Gal6S(b1-4)Glc6S
Procedure, shortened: as §1

[19] = target: Fuc(a1-2)[Gal(a1-3)]Gal
Procedure, shortened: as §1

[20] = target: Fuc(a1-2)[Gal(a1-3)]Gal(b1-3)GalNAc
Procedure, shortened: as §1

[21] = target: Fuc(a1-2)[Gal(a1-3)]Gal(b1-3)GalNAc(b1-3)Gal(a1-4)Gal(b1-4)Glc
Procedure, shortened: as §1

[22] = target: Fuc(a1-2)[Gal(a1-3)]Gal(b1-3)GlcNAc
Procedure, shortened: as §1

[23] = target: Fuc(a1-2)[Gal(a1-3)]Gal(b1-3)GlcNAc(b1-2)Man(a1-3)[Fuc(a1-2)[Gal(a1-3)]Gal(b1-3)GlcNAc(b1-2)Man(a1-6)]Man(b1-4)GlcNAc(b1-4)GlcNAc
Procedure, shortened: as §1

[24] = target: Fuc(a1-2)[Gal(a1-3)]Gal(b1-3)GlcNAc(b1-2)Man(a1-3)[Fuc(a1-2)[Gal(a1-3)]Gal(b1-3)GlcNAc(b1-2)Man(a1-6)]Man(b1-4)GlcNAc(b1-4)[Fuc(a1-6)]GlcNAc
Procedure, shortened: as §1

[25] = target: Fuc(a1-2)[Gal(a1-3)]Gal(b1-3)GlcNAc(b1-3)GalNAc
Procedure, shortened: as §1

[26] = target: Fuc(a1-2)[Gal(a1-3)]Gal(b1-3)GlcNAc(b1-6)GalNAc
Procedure, shortened: as §1

[27] = target: Fuc(a1-2)[Gal(a1-3)]Gal(b1-4)Glc
Procedure, shortened: as §1

[28] = target: Fuc(a1-2)[Gal(a1-3)]Gal(b1-4)GlcNAc
Procedure, shortened: as §1

[29] = target: Fuc(a1-2)[Gal(a1-3)]Gal(b1-4)GlcNAc(b1-2)Man
Procedure, shortened: as §1

[30] = target: Fuc(a1-2)[Gal(a1-3)]Gal(b1-4)GlcNAc(b1-2)Man(a1-3)[Fuc(a1-2)[Gal(a1-3)]Gal(b1-4)GlcNAc(b1-2)Man(a1-6)]Man(b1-4)GlcNAc(b1-4)GlcNAc
Procedure, shortened: as §1

[31] = target: Fuc(a1-2)[Gal(a1-3)]Gal(b1-4)GlcNAc(b1-2)Man(a1-3)[Fuc(a1-2)[Gal(a1-3)]Gal(b1-4)GlcNAc(b1-2)Man(a1-6)]Man(b1-4)GlcNAc(b1-4)[Fuc(a1-6)]GlcNAc
Procedure, shortened: as §1

[32] = target: Fuc(a1-2)[Gal(a1-3)]Gal(b1-4)GlcNAc(b1-3)GalNAc
Procedure, shortened: as §1

[33] = target: Fuc(a1-2)[Gal(a1-3)]Gal(b1-4)GlcNAc(b1-3)[Fuc(a1-2)[Gal(a1-3)]Gal(b1-4)GlcNAc(b1-6)]GalNAc
Procedure, shortened: as §1

[34] = target: Fuc(a1-2)[Gal(a1-3)]Gal(b1-4)GlcNAc(b1-6)GalNAc
Procedure, shortened: as §1

[35] = target: Fuc(a1-2)[Gal(a1-3)]Gal(b1-4)[Fuc(a1-3)]Glc
Procedure, shortened: as §1

[36] = target: Fuc(a1-2)[Gal(a1-3)]Gal(b1-4)[Fuc(a1-3)]GlcNAc
Procedure, shortened: as §1

[37] = target: Fuc(a1-2)[Gal(a1-3)]Gal(b1-4)[Fuc(a1-3)]GlcNAc(b1-3)GalNAc
Procedure, shortened: as §1

[38] = target: Fuc(a1-2)[Gal(a1-4)]Gal(b1-4)GlcNAc
Procedure, shortened: as §1

[39] = target: Fuc(a1-2)[GalNAc(a1-3)]Gal
Procedure, shortened: as §1

[40] = target: Fuc(a1-2)[GalNAc(a1-3)]Gal(b1-3)GalNAc(a1-3)[Fuc(a1-2)]Gal(b1-4)GlcNAc
Procedure, shortened: as §1

[41] = target: Fuc(a1-2)[GalNAc(a1-3)]Gal(b1-3)GalNAc(b1-3)Gal(a1-4)Gal(b1-4)Glc
Procedure, shortened: as §1

[42] = target: Fuc(a1-2)[GalNAc(a1-3)]Gal(b1-3)GlcNAc
Procedure, shortened: as §1

[43] = target: Fuc(a1-2)[GalNAc(a1-3)]Gal(b1-3)GlcNAc(b1-2)Man(a1-3)[Fuc(a1-2)[GalNAc(a1-3)]Gal(b1-3)GlcNAc(b1-2)Man(a1-6)]Man(b1-4)GlcNAc(b1-4)GlcNAc
Procedure, shortened: as §1

[44] = target: Fuc(a1-2)[GalNAc(a1-3)]Gal(b1-3)GlcNAc(b1-2)Man(a1-3)[Fuc(a1-2)[GalNAc(a1-3)]Gal(b1-3)GlcNAc(b1-2)Man(a1-6)]Man(b1-4)GlcNAc(b1-4)[Fuc(a1-6)]GlcNAc
Procedure, shortened: as §1

[45] = target: Fuc(a1-2)[GalNAc(a1-3)]Gal(b1-3)GlcNAc(b1-3)GalNAc
Procedure, shortened: as §1

B1: OGAN (protein)
chain: MVQKESQATLEERESELSSNPAASAGASLEPPAAPAPGEDNPAGAGGAAVAGAAGGARRFLCGVVEGFYGRPWVMEQRKELFRRLQKWELNTYLYAPKDDYKHRMFWREMYSVEEAEQLMTLISAAREYEIEFIYAISPGLDITFSNPKEVSTLKRKLDQVSQFGCRSFALLFNDIDHNMCAADKEVFSSFAHAQVSITNEIYQYLGEPETFLFCPTEYCGTFCYPNVSQSPYLRTVGEKLLPGIEVLWTGPKVVSKEIPVESIEEVSKIIKRAPVIWDNIHANDYDQKRLFLGPYKGRSTELIPRLKGVLTNPNCEFEANYVAIHTLATWYKSNMNGVRKDVVMTDSEDSTVSIQIKLENEGSDEDIETDVLYSPQMALKLALTEWLQEFGVPHQY
In the case of B1, the “glycan array binding signal (z-score)” value [1] is reported as -0.047, the “glycan array binding signal (z-score)” value [2] is reported as -0.04 and the “glycan array binding signal (z-score)” value [3] is reported as -0.036. For the same binder, the “glycan array binding signal (z-score)” value [4] was -0.081, the “glycan array binding signal (z-score)” value [5] was -0.084 and the “glycan array binding signal (z-score)” value [6] was -0.096. For the same binder, the “glycan array binding signal (z-score)” value [7] was -0.061, the “glycan array binding signal (z-score)” value [8] was -0.067 and the “glycan array binding signal (z-score)” value [9] was -0.065. For the same binder, the “glycan array binding signal (z-score)” value [10] was -0.005, the “glycan array binding signal (z-score)” value [11] was -0.016 and the “glycan array binding signal (z-score)” value [12] was -0.065. The “glycan array binding signal (z-score)” value [13] was -0.062, the “glycan array binding signal (z-score)” value [14] was -0.022 and the “glycan array binding signal (z-score)” value [15] was -0.094. For the same binder, the “glycan array binding signal (z-score)” value [16] was 0.263, the “glycan array binding signal (z-score)” value [17] was -0.071 and the “glycan array binding signal (z-score)” value [18] was -0.041. The “glycan array binding signal (z-score)” value [19] was -0.035, the “glycan array binding signal (z-score)” value [20] was 0.104 and the “glycan array binding signal (z-score)” value [21] was -0.095. For the same binder, the “glycan array binding signal (z-score)” value [22] was -0.071, the “glycan array binding signal (z-score)” value [23] was -0.081 and the “glycan array binding signal (z-score)” value [24] was -0.072. For the same binder, the “glycan array binding signal (z-score)” value [25] was -0.049, the “glycan array binding signal (z-score)” value [26] was -0.062 and the “glycan array binding signal (z-score)” value [27] was -0.068. The “glycan array binding signal (z-score)” value [28] was -0.076, the “glycan array binding signal (z-score)” value [29] was -0.067 and the “glycan array binding signal (z-score)” value [30] was -0.027. For the same binder, the “glycan array binding signal (z-score)” value [31] was -0.051, the “glycan array binding signal (z-score)” value [32] was -0.067 and the “glycan array binding signal (z-score)” value [33] was 0.056. The “glycan array binding signal (z-score)” value [34] was -0.066, the “glycan array binding signal (z-score)” value [35] was -0.066 and the “glycan array binding signal (z-score)” value [36] was -0.069. The “glycan array binding signal (z-score)” value [37] was -0.076, the “glycan array binding signal (z-score)” value [38] was -0.108 and the “glycan array binding signal (z-score)” value [39] was -0.072. The “glycan array binding signal (z-score)” value [40] was 23.3, the “glycan array binding signal (z-score)” value [41] was 7.17 and the “glycan array binding signal (z-score)” value [42] was -0.02. For the same binder, the “glycan array binding signal (z-score)” value [43] was -0.063, the “glycan array binding signal (z-score)” value [44] was -0.056 and the “glycan array binding signal (z-score)” value [45] was -0.055.
